The campaign covered roughly 360,000 compounds. About 25,000 (6.9%) were called active. The shares of active, inactive and inconclusive entries below differ from those in the screen. Calls follow the shape of the dose curve; as a rule, active = well fitted inhibition curve with a large enough effect; inconclusive = small, poorly fitted or top-dose-only effect; inactive = flat fitted curve, though single readings scatter. Potencies of inconclusive entries are doubtful fits and often do not repeat.
Target: Luciferin 4-monooxygenase (Photinus pyralis) (UniProt P08659)
Sequence of UniProt P08659 (P08659 whole entry, looked up): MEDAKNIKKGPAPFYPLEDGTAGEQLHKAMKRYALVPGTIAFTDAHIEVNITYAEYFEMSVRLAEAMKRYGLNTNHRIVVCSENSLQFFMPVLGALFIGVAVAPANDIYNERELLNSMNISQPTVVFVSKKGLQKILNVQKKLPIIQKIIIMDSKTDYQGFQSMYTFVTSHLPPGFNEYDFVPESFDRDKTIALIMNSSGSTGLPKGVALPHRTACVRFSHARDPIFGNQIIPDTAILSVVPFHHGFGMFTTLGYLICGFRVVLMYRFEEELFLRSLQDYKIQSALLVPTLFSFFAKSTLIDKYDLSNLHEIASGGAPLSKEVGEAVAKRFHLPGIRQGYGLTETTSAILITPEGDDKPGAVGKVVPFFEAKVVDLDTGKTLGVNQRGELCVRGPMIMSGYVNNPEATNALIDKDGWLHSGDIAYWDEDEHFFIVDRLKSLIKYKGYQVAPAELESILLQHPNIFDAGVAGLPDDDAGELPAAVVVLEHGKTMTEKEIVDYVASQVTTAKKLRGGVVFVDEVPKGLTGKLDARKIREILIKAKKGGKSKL
Assay: qHTS profiling assay for firefly luciferase inhibitor/activator using purifed enzyme and Km concentrations of substrates (counterscreen for miR-21 project); also: nearly all actives have a fitted effect of over 55% in size;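 as to activity change, negative = inhibition: plate controls were vehicle for no effect and reference inhibitor for full effect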
Settings: purified FLuc, luminescence inhibition; series mostly up to 57.5 µM
Summary of the method: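 Purified P. pyralis luciferase (10nM final) with 10uM D-luciferin and 10uM ATP (Km levels) in 50mM Tris acetate pH 7.5, 10mM Mg acetate, 0.01% Tween-20, 0.05% BSA; qHTS 6-point titration, ~60 µM downward; luminescence read.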
Potency is read from the fitted curve at half-maximal effect; tags tell the direction and shape of the fitted curve.

Structure (SMILES)	Potency	activity change, negative = inhibition
O=C(Nc1ccccc1)ON=C1c2ccccc2-c2ccccc21	inconclusive: 26.9 µM [inhibitor, partial curve, poor fit]	–
CCN(CC(=O)Nc1ccc(NC(C)=O)cc1)C(=O)/C=C/c1ccc([N+](=O)[O-])cc1	inconclusive: 37.9 µM [inhibitor, partial curve, poor fit]	–
CCOC(=O)/C(=C/c1ccc(OC(=O)c2ccccc2)cc1)C(C)=O	inconclusive: 26.9 µM [inhibitor, single point]	–
COc1ccc(C(=O)Nc2ccc(Nc3ccccc3)cc2)cc1OC	inconclusive: 12 µM [inhibitor, partial curve, poor fit]	–
CCn1nc(C)c(CNC(=O)c2cc(COc3ccc(F)cc3Cl)on2)c1C	inconclusive: 37.9 µM [inhibitor, single point]	–
CCC(=O)N1c2ccccc2CC1C(=O)NCCCN1CCN(c2cccc(Cl)c2)CC1 (centres undefined)	inactive	–
CC(C)Cn1cc(NC(=O)NCc2ccc(Cl)cc2)c2ccccc2c1=O	inactive	–
O=C(CCCOc1ccc(Cl)cc1Cl)Nc1cccnc1	inconclusive: 30.1 µM [inhibitor, single point]	–
O=C(CCN1C(=O)S/C(=C/c2ccccc2)C1=O)Nc1ccc(O)c(C(=O)O)c1	inconclusive: 21.3 µM [inhibitor, partial curve]	–
CN(C)c1c(F)cc(C(=O)NCc2ccccc2)cc1F	inconclusive: 37.9 µM [inhibitor, partial curve, poor fit]	–
O=c1c2ccccc2c(C=Nc2ccc(O)cc2)c(O)n1-c1nccs1	inconclusive: 23.9 µM [inhibitor, partial curve, poor fit]	–
COc1cc(S(=O)(=O)NCC2CCCO2)c(OC)cc1Cl (centres undefined)	inactive	–
Cc1ccc2c(c1)C(c1ccccc1)N(C(=O)c1ccccc1)CC(=O)N2 (centres undefined)	inactive	–
COc1ccc(NS(=O)(=O)c2ccc(O)c(C(=O)OCC(=O)NC(C)C3CC4CCC3C4)c2)cc1 (centres undefined)	inconclusive: 37.9 µM [inhibitor, partial curve, poor fit]	–
Cc1cc(C(=O)CSc2nc(N)cc(=O)[nH]2)c(C)n1Cc1ccco1	inconclusive: 37.9 µM [inhibitor, single point]	–
O=C(NC(=S)N1CCCCCC1)c1ccc(Cl)cc1Cl	inactive	–
CN(CCOc1ccccc1)C(=O)c1cc(-c2ccco2)nc2ccccc12	inconclusive: 26.9 µM [inhibitor, single point]	–
CCN(CC)c1ccc(-c2sc(Nc3ccccc3)n[n+]2-c2ccc(F)cc2)cc1	inconclusive: 19 µM [inhibitor, partial curve]	–
O=C1CC(c2ccccc2)CC(O)=C1C=Nc1ccccc1Cl (centres undefined)	inconclusive: 21.3 µM [inhibitor, partial curve]	–
O=c1c2c(-c3ccc(Cl)cc3)csc2ncn1/N=C/c1cccc([N+](=O)[O-])c1O	inconclusive: 37.9 µM [inhibitor, single point]	–
COc1ccc(NC(=O)COc2nc(N(C)C)nc(N(C)C)n2)cc1	–	inactive: 0.667% [at 2.3 µM]
S=c1[nH]nc(Cc2sc(-c3ccccc3)nc2-c2ccccc2)o1	inconclusive: 33.8 µM [inhibitor, single point]	–

Structure (SMILES)	Potency	activity change, negative = inhibition
COc1ccc(Cc2nnc(NC(=O)c3ccccc3F)s2)cc1	inconclusive: 37.9 µM [inhibitor, partial curve, poor fit]	–
COC(=O)CC(=O)CSc1nc2cc(C(=O)NC(C)C)ccc2c(=O)n1CCc1ccccc1	inactive	–
COc1ccc(CNC(=O)Nc2cccc(Cl)c2)cc1	inconclusive: 4.26 µM [inhibitor, partial curve, poor fit]	–
COc1ccccc1/C=C/C1=NC(=C\N(C)C)/C(=O)O1	inconclusive: 26.9 µM [inhibitor, single point]	–
CCOC(=O)C1(Cc2cccc(Cl)c2)CCCN(C(=O)c2cc(CC)on2)C1 (centres undefined)	inconclusive: 37.9 µM [inhibitor, partial curve, poor fit]	–
Nc1cccc2c1C(=O)N(CC(=O)NC13CC4CC(CC(C4)C1)C3)C2=O	inactive	–
COC(=O)c1ccc(NC(=O)CSc2n[nH]c(-c3ccccc3)n2)cc1	inconclusive: 37.9 µM [inhibitor, single point]	–
CC(C)Sc1nc(SCC(=O)NCc2ccco2)c2c3c(sc2n1)COC(C)(C)C3	active: 9.53 µM	–
CCn1cc(C2=NC(c3ccccc3)CO2)c2ccccc21 (centres undefined)	inconclusive: 21.3 µM [inhibitor, partial curve, poor fit]	–
Cc1ccc(C)c(N2C(=O)N(Cc3ccccc3C)c3ccccc3S2(=O)=O)c1	inactive	–
COCc1c(C(=O)Nc2ccc(Cl)cc2F)oc2ccccc12	inconclusive: 9.53 µM [inhibitor, partial curve]	–
COC(=O)c1ccc(NC(=O)Nc2ccccc2C)cc1	active: 4.78 µM	–
Cc1ccc(-c2nc3ncccc3o2)cc1N	active: 15.1 µM	–
CC(/C=C1\SC(=S)N(NC(=O)c2ccncc2)C1=O)=C\c1ccccc1	inconclusive: 37.9 µM [inhibitor, single point]	–
CCCSc1nnc(Nc2ccccc2C)s1	active: 19 µM	–
C(=N\N1CCN(c2ccccc2)CC1)/c1ccccc1	inconclusive: 6.75 µM [inhibitor, partial curve]	–
O=C(Nc1ccc(N2CCN(c3ncccc3C(F)(F)F)CC2)nc1)c1cccs1	inconclusive: 37.9 µM [inhibitor, single point]	–
COC(=O)c1ccccc1Oc1ccc(NC(=O)c2ccco2)cc1	inconclusive: 8.49 µM [inhibitor, full curve]	–
COc1ccc(-c2cc(C(=O)N3CCCCC3)no2)cc1OC	inconclusive: 16.9 µM [inhibitor, partial curve]	–
COc1cc(C(=O)Nc2cccc(S(=O)(=O)NCc3ccco3)c2)cc(OC)c1OC	inactive	–
COCCN(C(=O)COC(=O)CSc1ccc(Cl)cc1)c1c(N)n(Cc2ccccc2)c(=O)[nH]c1=O	inactive	–
N#Cc1ccc(/C=C/C(=O)c2ccc3c(c2)OCO3)cc1	inconclusive: 3.01 µM [inhibitor, partial curve, poor fit]	–

— PubChem BioAssay AID588342 (National Center for Advancing Translational Sciences (NCATS), 2011)
